Read counts are not given, so values of variants with three or more changes are uncertain.
B1: LINE1-mini (parent)
chain: GGCAGAGCUCAACACAGCGUGGCAAAGUGGCUGUGGCUAGACUGCC

Variants of: B1
Assay: self-cleavage, relative activity (ratio to wild type); higher = more cleavage; in vitro, sequencing; the parent is a self-cleaving ribozyme

| Variant | self-cleavage |
| --- | --- |
| GGAACAGCUCAACACAGCGUGGUAAAGUGACUGUGGCUAGACUGCC | 0.23 |
| GGAAGAGCUCAACACAGCGUGUCAAAGUGCCUGUGGCUAGACUGCC | 0.62 |
| GGAAGAGCUCAACACAGCGUGGCAAAGUGGCUUUGGCUAUACUGCC | 0.33 |
| GGAAGAGCUCAACACAGCGUAGCAAAGUGGCUGUGGCUAGAUUGCC | 2.34 |
| GGAAGAACUCAACACAGCGUGGCAAAGUGGCUGUGGUUAGACUGCC | 0.56 |
| GGAAAAGUUCAGCACAGCGUGGCAAAGUGGCUGUGUCCCGACUGCC | 0.95 |
| GGAAGAGCUCAACACAGCGUGGCAAAGUGGCUAUGGCCAGGCUGCC | 0.08 |
| GGAAGAGCUCAACACAGCGUGGCAAAAAGGCUGUGGCUGGAUUGCC | 0.12 |
| GGAAGAGCAAAACUCAGCGUGGCAAAGUGGCUGUGGCUAGACUGCC | 0.08 |
| GGAAGAGCGCAACACAGCGUGGCAAAGUCGCUGUGGCUAGACUGCC | 0.09 |
| GGAAGAUGUCAACACAGCGUGGCAUAGUGGCUGUGGCUAGACUGCC | 1.12 |
| GGAAGAGCUCAACACAGCGAGGCAAGGUGGCUGUGGCUAGACUGCC | 0.32 |
| GGAAGAGCGCAACACAGCGUGGCAAAGUGGCUAUGGCUAGACUGCC | 0.06 |
| GGAAGAACUCAACACAGGGUGGCAAAGUGGCUGUGGCUAGACUGCU | 0.08 |
| GGAAGAGCUCAACACAGCGGGGCAAAGUGCCUGAGGCUAGACUGCC | 0.07 |
| GGAAGAGCUCAACACAGCGUGGCAAAGUGGCUCUUGCUAGACUGCC | 0.15 |
| GGAAGAGCUCAACACAGCGGGGCAAAGUGGCUGUGGCGAGACUGCC | 0.13 |
| GGAACAGCUCAACACAGCGUGGCAAAGUGGCUGUGAUUAGACUGCC | 0.03 |
| GGAAGAGCUCAACACAGCGUGGCAAAGCGGCUGUGGUUAGACUGCC | 0.12 |

| Variant | self-cleavage |
| --- | --- |
| GGAAGACCUCAACACAGCGUGGCAAAGUGGCUCUGUCUAGACUGCC | 0.03 |
| GGAAGAGCUCAACACAGCGUGGCAAAAUGGCUGUGGCUAAAGUGCC | 0.1 |
| GGAAGAGCACAACACAGCGUGGCAAAGUGACUGUGGCUAGACUGCC | 1.54 |
| GGAAGAGCUCAACACAGCGUGGCAAAGUGGCUGUGCCCAGACUGAC | 0.07 |
| GGAAGAGCGCAACACAGCGUGGCGAAGUGGCUGUGGCUAGACUGCC | 0.05 |
| GGAAGAGCUCAACACAGCGUGGCAAAGUUGCUGUGGCUAGCCUGCC | 0.08 |
| GGAAGAGCUCAACACAGCGUGGCAAAAUGGCUUUGGCUAGACUGCC | 0.27 |
| GGAAGAUCUCCACACAGCGUGGCAAUGUGGCUGUGGCUAGACUGCU | 0.01 |
| GGAAUAGCUCAACACAGCGUGGCAAAGUGGCUGUCGCUAGACUGCC | 0.11 |
| GGAAGAGCUCAACACAGCGUGGCAAAGUGUCUGUCGCGAGACUGCC | 0.18 |
| GGAAGAGCUCAACACAGCGUGGCAAAGUGGCUGUGACUAGACUGUC | 0.36 |
| GGAAGAGCUCAACACAACGUGGCAAAGUGGGUGUGGCCACACUGCC | 0.08 |
| GGAACAGCUGAACACAGCGUUGCAAAGUGGCUGUGGCUAGACUGCC | 0.01 |
| GGAAGAUCUCAACACAGCGUGGCAAAAUGGAUGUGGCUAGACUGCC | 0.48 |
| GGAAGAGCUCAACACAUCGUGGCAAAGUGGCUGUGUCUUGACUGCC | 0.12 |
| GGAAGAGCUCAACACAGCGCGGCAACGUGGCUGUGGCUAGACUGCC | 0.13 |
| GGAAGAGCUCAACACAUCGUGGUAAAGUGGCUGUGGGUAGACUGCC | 0.23 |
| GGAAGAGCUCAACACAACGUGGCCAAGUGGCUGUGGCUAGACUGCC | 0.09 |
| GGAAAAGCUCAACACAGCGUGGCAAAGUGGCAGUGGCUAGACUGCC | 0.08 |

| Variant | self-cleavage |
| --- | --- |
| GGAAGAGCACAACACAGCGUGGCAAAGUGGCUGUGGCUAGACCGAC | 0.25 |
| GGAAGAGCGCAACACAGCGUGGCAAAGUGGCUGUGGCUAGGCUGCC | 0.18 |
| GGAAGAGCACAACACAGCGAAGCAAAGUGGCUGUGGCUAGACUGCC | 0.25 |
| GGAAGAGCUCAACACAGCGGGGCAAAGUGGCUGUGGCUAGACUGCG | 0.36 |
| GGAAGAGCUCAACACAGCGCCGCAAAGUGGCUGUGGCUAGACUGCC | 0.03 |
| GGAAGAGCUCAACACACCGUCGCAACGUGGCUGUAGCUAGACUGCC | 0.12 |
| GGAAGAGCUCAACACAGCGUGGCAAAGUGGCUUAGGCUAGACUGCU | 0.17 |
| GGAAGAGCUCAACACAGCGUGGCAAAGAGGCUGUGGCUAGACUGAC | 0.13 |
| GGAACAGCGCAACACAGCGUGGCAAAGUGGCUGUGGCUAGACUGCC | 0.01 |
| GGAAGAGCUCAACACAGCCUGGCGAAGUGGCUGUGUUUAGACUGCC | 0.02 |
| GGAAGACCUCAACACAGCGGGGCAAAGUGGCUGUGGCUAGACUGCC | 0.05 |
| GGAAGAGCCCAAGACAGCGUGGCAAAGUGGCUGUGGCUAGACUGCC | 0.05 |
| GGAAGAGCACAACACAGCGUUGAAAAGUGGCUGUGGCUAGACUGCG | 0.89 |
| GGAAGAGCGCAACACAGCGAGUCAAAGUGGCUGUGGCUAGAAUGCC | 0.05 |
| GGAAGAGCUCAACACAGCGUGGCAAAGAGGCUAUGGCUAGACUGCC | 0.06 |
| GGAAGAGCCCAAAAUAGCGUGGCAAAGUGGCUGUGGCUAGACUGCC | 0.05 |
| GGAAGAGCUCAACACAGCGUGGCAAAAUGGCUGUGCCUAGACUGCC | 0.69 |
| GGAACAGCAGUACACAGCGUAGCAAAGUGGCUGUGGCUAGACUGCC | 0.01 |

Reference: the RNAGym collection of RNA variant scans (doi:10.7554/elife.90254)
